Source: patent US4877870A, “Process for producing 10-hydroxyanthracyclines” (Kirin Beer Kabushiki Kaisha, priority 1986, dated 1989)

Experiment: Solubility

Structure (SMILES) | Solubility: insoluble in | Solubility: soluble in
CC[C@@]1(O)C[C@H](O[C@H]2C[C@H](N3CCOCC3)[C@H](O)[C@H](C)O2)c2c(O)c3c(c(O)c2[C@H]1O)C(=O)c1cccc(O)c1C3=O [M-R20X2, 3'-deamino-3'-(4-morpholinyl)-13-deoxo-10-hydroxycarminomycin] | Insoluble in water, hexane, cyclohexane, diethyl ether, and petroleum ether | Soluble in acidic water, basic water, methanol, ethanol, propanol, acetone, ethyl acetate, and chloroform
CC[C@@]1(O)C[C@H](O[C@H]2C[C@H](N)[C@H](O)[C@H](C)O2)c2c(O)c3c(c(O)c2[C@H]1O)C(=O)c1cccc(O)c1C3=O [R20X2, 13-deoxo-10-hydroxycarminomycin] | Insoluble: water | Soluble: acidic water, basic
